According to PubChem BioAssay AID2675 (National Center for Advancing Translational Sciences (NCATS), 2010):
About 100 (0.036%) of roughly 280,000 compounds were called active. The shares of active, inactive and inconclusive entries below differ from those in the screen. The call rests on the fitted dose curve; in most records, active means well fitted inhibition curve with a large enough effect in the signal ratio, with a control signal flat (not every such curve was filed as active); inconclusive means small, poorly fitted or top-dose-only effect, or effect the other way, or a change in a side signal; inactive means no such curve, though single readings can be large or run the other way; the % refers to the signal ratio. A potency beside an inconclusive call is a rough fit, not a confirmed value. A note “side channel” means that the fit belongs to a control or component signal, not to the main read-out.

target: Muscleblind-like protein 1 (Homo sapiens) (UniProt Q9NR56); test: qHTS Assay for Inhibitors of MBNL1-poly(CUG) RNA binding; conditions: TR-FRET MBNL1-His/biotin-(CUG)12 binding, 665/545 ratio; series mostly up to 57.5 µM
UniProt Q9NR56, sequence (Q9NR56 whole entry, looked up): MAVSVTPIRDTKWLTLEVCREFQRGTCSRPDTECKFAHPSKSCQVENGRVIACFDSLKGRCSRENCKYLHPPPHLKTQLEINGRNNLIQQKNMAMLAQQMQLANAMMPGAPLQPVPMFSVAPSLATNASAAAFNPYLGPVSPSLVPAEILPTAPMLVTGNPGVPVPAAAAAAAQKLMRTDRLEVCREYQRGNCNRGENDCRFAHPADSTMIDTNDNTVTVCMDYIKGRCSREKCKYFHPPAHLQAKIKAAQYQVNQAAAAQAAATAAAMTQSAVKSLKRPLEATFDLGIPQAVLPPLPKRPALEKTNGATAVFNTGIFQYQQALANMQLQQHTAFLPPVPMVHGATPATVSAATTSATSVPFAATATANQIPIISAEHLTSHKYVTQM
Procedure, shortened: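 TR-FRET readout: Ex 340 nm, 665/545 nm emission ratio, normalized to buffer-only (basal) and MBNL1-(CUG)12 controls. Complex of MBNL1-His with Biotin-(CUG)12, compounds 92 nM–58 uM, incubated 60 min at room temperature.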
Potency means the concentration at half of the fitted maximal effect; tags describe the fitted curve by direction and shape or compound fluorescence and quenching.

Row | Structure (SMILES) | Potency
1 | O=c1cn[nH]c2ccccc12 | inconclusive: 25.1 µM [quencher, side channel, single point]
2 | CNC(=O)c1cc2c(=O)n3cc(C)ccc3nc2n(Cc2ccco2)c1=N | inconclusive: 10 µM [quencher, side channel, partial curve]
3 | Cc1cc(C(=O)CSc2nc(N)cc(=O)[nH]2)c(C)n1CCc1ccc(F)cc1 | inactive
4 | Cc1c(C(=O)N2CCCCC2)c(S(=O)(=O)Nc2ccc(F)cc2F)c(C)n1C | inactive
5 | COc1ccccc1NC(=O)CSc1ccc2nnc(-c3cccnc3)n2n1 | inactive
6 | COc1cc(C(=O)OCC(=O)Nc2sccc2C(N)=O)cc(OC)c1OC | inactive
7 | CC(=O)Nc1ccccc1NC(=O)C/C(C)=N/NC(=O)c1ccc([N+](=O)[O-])c(Cl)c1 | inconclusive: 11.2 µM [quencher, side channel, partial curve]
8 | CCOC(=O)c1sc(N/N=C/c2ccccc2)nc1C | inconclusive: 0.708 µM [quencher, side channel, full curve, poor fit]
9 | CC(C)(C)c1nc(SCC(=O)NNC(=O)c2ccccc2)c2ccccc2n1 | inactive
10 | CSc1nnc2c3ccccc3c3ccccc3c2n1 | inconclusive: 8.91 µM [quencher, side channel, partial curve]
11 | CCN(CC)C(=O)c1cnn(-c2ccccc2)c1NC(=O)c1cccs1 | inconclusive: 0.708 µM [fluorescent, side channel, full curve]
12 | COC(=O)CCC(=O)OC1(C)C(=O)C2=CN(CCCOC(C)C)C(c3ccc(OC)cc3)=CC2=C(Br)C1=O (configuration not stated) | inconclusive: 20 µM [quencher, side channel, single point]
13 | CC(=O)c1sc(=S)n(-c2ccc(Cl)cc2)c1C | inconclusive: 15.8 µM [quencher, side channel, partial curve]
14 | CCOC(=O)c1oc2c(C)c(O)ccc2c(=O)c1-c1nncn1-c1ccccc1 | inconclusive: 20 µM [quencher, side channel, partial curve]
15 | NS(=O)(=O)c1ccc(-c2ccc(/C=N/Nc3ccc(C(=O)O)cc3)o2)cc1 | inconclusive: 12.6 µM [quencher, side channel, partial curve]
16 | CCOC1=C/C(=C/c2c(N)n3oc(C)cc3nc2=O)C=CC1=O | inconclusive: 31.6 µM [quencher, side channel, single point]
17 | Cc1cc(C)n2ncc(C(=O)NCCc3ccccc3)c2n1 | inactive
18 | COc1ccc(N(C)S(=O)(=O)c2cccc3nsnc23)cc1 | inconclusive: 17.8 µM [quencher, side channel, partial curve]
19 | O=[N+]([O-])c1ccc(CSc2nnc3ccccn23)cc1 | inconclusive: 12.6 µM [quencher, side channel, partial curve]

Row | Structure (SMILES) | Potency
20 | Cc1cccc(Nc2nnc(-c3ccc(N4CCOCC4)c([N+](=O)[O-])c3)c3ccccc23)c1 | inconclusive: 4.47 µM [quencher, side channel, partial curve]
21 | CCOC(=O)CN1C(=O)S/C(=C/c2cc(C)n(-c3ccccn3)c2C)C1=O | inconclusive: 25.1 µM [quencher, side channel, partial curve]
22 | COc1cc(/C=C(\C#N)C(N)=O)ccc1OCc1c(C)no[n+]1[O-] | inconclusive: 31.6 µM [quencher, side channel, partial curve]
23 | O=[N+]([O-])c1ccc(O)c(/C=N/Nc2ccc(Cl)nn2)c1 | inconclusive: 2.24 µM [quencher, side channel, full curve]
24 | CC(C(=O)Nc1ccccc1-c1ccccc1)N1CCN(C(=O)c2ccccc2)CC1 (configuration not stated) | inactive
25 | N#Cc1c(-c2cccs2)cc(C2CC2)nc1SCC(N)=O | inconclusive: 39.8 µM [fluorescent, side channel, single point]
26 | COC(=O)CCC(=O)OC1(C)C(=O)C=C2C=C(C3CC3)N(Cc3ccc(OC)cc3)C=C2C1=O (configuration not stated) | inconclusive: 15.8 µM [quencher, side channel, partial curve, poor fit]
27 | O=C(Nc1ccccc1N1CCOCC1)c1ccc2c(c1)C(=O)N(Cc1ccncc1)C2=O | inconclusive: 8.91 µM [quencher, side channel, partial curve]
28 | O=C(O)c1ccc(CNC(=O)c2ccc3c(c2)C(=O)N(Cc2cccnc2)C3=O)cc1 | inconclusive: 8.91 µM [quencher, side channel, partial curve]
29 | CN1CCN(c2ccccc2/C=C2/C(=O)Nc3ccccc32)CC1 | inconclusive: 25.1 µM [quencher, side channel, partial curve]
30 | COC(=O)Cn1c(=NC(=O)c2nc3ccccc3s2)sc2cc(S(N)(=O)=O)ccc21 | inactive
31 | COc1ccc(S(=O)(=O)Nc2cccc(SC)c2)cc1OC | inconclusive: 5.01 µM [quencher, side channel, full curve, poor fit]
32 | CCSc1nnc(-c2cnn(-c3ccccc3)c2-n2cccc2)n1C | inactive
33 | CO/N=C/c1ccc(N2CCN(C(=O)c3ccc(Cl)cc3Cl)CC2)c([N+](=O)[O-])c1 | inconclusive: 15.8 µM [quencher, side channel, partial curve]
34 | Cc1ccc(S(=O)(=O)Oc2ccc(/C=N/N=C3/NC(=O)C(CC(=O)O)S3)cc2)cc1[N+](=O)[O-] (configuration not stated) | inconclusive: 25.1 µM [quencher, side channel, partial curve]
35 | O=C(c1nn2c(C(F)(F)F)cc(-c3ccccc3)nc2c1Cl)N1CCN2CCCC2C1 (configuration not stated) | inconclusive: 15.8 µM [quencher, partial curve]
36 | CC(C)Cc1nnc(NC(=O)c2ccc([N+](=O)[O-])cc2)s1 | inconclusive: 7.94 µM [quencher, side channel, partial curve]
37 | CN(C)c1ccc(C2N3CC4(C)CN2CC(C)(C3)C4O)cc1 (configuration not stated) | inconclusive: 15.8 µM [quencher, side channel, partial curve]
